Assay [1] deals with MBP-RAD51 (human) (UniProt Q06609). The assay is described as follows: pull-down; MBP-RAD51 (bait) from bacterial soluble extract bound to amylose resin and washed; purified FLAG-SMARCAL1, FLAG-ZRANB3 or FLAG-BCDX2 (1 μg, prey) in 150 μl IP buffer (25 mM Tris-HCl pH 7.5, 100 mM NaCl, 3 mM EDTA, 0.5 mM DTT, BSA, 10% glycerol), 1 h at 4°C; eluted with maltose; Western blot with anti-MBP and anti-FLAG; both purified. A general note: In western blotting, separated proteins are transferred to a membrane and probed.

Amino acid sequences for entries named in this document (tags omitted).
UniProt Q06609: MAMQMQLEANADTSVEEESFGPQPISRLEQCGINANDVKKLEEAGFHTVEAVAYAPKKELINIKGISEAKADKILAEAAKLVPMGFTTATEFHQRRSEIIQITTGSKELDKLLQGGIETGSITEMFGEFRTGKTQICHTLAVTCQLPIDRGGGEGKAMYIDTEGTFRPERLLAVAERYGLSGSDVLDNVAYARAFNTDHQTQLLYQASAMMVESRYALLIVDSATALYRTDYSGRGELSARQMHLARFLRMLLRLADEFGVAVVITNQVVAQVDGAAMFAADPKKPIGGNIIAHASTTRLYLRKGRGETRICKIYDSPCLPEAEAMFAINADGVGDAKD

Assay [2] deals with T1, RAD51 paralog complex RAD51B-RAD51C-RAD51D-XRCC2 (BCDX2) (human) (UniProt O15315+O43502+O75771+O43543).
T1 sequence 1: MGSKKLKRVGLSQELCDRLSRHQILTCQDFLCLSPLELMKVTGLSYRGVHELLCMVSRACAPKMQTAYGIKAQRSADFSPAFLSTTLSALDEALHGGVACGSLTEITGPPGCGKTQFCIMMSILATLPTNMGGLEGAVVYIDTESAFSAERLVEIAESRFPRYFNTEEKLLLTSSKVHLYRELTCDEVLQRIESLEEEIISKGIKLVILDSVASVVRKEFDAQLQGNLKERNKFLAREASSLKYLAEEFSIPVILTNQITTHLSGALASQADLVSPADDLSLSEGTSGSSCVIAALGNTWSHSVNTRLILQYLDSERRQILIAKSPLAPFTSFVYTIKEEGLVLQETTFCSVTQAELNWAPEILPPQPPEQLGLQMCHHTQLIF
T1 sequence 2: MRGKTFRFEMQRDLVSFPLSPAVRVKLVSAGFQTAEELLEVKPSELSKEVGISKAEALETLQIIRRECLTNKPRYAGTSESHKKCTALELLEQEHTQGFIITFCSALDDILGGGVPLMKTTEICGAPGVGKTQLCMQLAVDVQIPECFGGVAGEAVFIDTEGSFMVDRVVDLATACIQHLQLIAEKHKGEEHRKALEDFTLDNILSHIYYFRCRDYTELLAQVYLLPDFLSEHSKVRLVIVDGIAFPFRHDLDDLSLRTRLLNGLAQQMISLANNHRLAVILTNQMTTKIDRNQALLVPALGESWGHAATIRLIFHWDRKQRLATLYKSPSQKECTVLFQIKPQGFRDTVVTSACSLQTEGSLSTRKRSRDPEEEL
T1 sequence 3: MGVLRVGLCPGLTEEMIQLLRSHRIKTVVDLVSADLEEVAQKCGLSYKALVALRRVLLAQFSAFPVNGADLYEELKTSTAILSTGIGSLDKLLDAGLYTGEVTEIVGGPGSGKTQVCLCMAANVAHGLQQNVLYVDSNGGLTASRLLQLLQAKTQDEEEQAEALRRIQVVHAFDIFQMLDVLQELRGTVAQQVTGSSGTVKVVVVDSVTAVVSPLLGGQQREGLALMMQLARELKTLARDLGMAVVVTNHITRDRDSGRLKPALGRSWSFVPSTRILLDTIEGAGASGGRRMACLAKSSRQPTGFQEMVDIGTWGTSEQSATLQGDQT
T1 sequence 4: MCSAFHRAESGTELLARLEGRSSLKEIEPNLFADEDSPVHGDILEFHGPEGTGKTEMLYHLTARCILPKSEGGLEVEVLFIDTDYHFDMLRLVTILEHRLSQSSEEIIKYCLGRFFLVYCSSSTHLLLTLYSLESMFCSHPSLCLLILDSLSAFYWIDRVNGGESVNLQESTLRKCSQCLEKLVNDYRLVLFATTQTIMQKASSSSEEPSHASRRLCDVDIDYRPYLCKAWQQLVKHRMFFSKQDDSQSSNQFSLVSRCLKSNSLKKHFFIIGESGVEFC
The assay is described as follows: pull-down; anti-His antibody on Dynabeads Protein G, bound to purified BCDX2 (1 μg, bait); purified SMARCAL1 or ZRANB3 (1 μg, prey) in IP buffer (25 mM Tris-HCl pH 7.5, 100 mM NaCl, 3 mM EDTA, 0.5 mM DTT, BSA), 1 h at 4°C; silver staining or Western blot with anti-FLAG and anti-His; both purified.

The target of assay [3] is T2, FLAG-SMARCAL1 (human), Q9NZC9.
T2 chain: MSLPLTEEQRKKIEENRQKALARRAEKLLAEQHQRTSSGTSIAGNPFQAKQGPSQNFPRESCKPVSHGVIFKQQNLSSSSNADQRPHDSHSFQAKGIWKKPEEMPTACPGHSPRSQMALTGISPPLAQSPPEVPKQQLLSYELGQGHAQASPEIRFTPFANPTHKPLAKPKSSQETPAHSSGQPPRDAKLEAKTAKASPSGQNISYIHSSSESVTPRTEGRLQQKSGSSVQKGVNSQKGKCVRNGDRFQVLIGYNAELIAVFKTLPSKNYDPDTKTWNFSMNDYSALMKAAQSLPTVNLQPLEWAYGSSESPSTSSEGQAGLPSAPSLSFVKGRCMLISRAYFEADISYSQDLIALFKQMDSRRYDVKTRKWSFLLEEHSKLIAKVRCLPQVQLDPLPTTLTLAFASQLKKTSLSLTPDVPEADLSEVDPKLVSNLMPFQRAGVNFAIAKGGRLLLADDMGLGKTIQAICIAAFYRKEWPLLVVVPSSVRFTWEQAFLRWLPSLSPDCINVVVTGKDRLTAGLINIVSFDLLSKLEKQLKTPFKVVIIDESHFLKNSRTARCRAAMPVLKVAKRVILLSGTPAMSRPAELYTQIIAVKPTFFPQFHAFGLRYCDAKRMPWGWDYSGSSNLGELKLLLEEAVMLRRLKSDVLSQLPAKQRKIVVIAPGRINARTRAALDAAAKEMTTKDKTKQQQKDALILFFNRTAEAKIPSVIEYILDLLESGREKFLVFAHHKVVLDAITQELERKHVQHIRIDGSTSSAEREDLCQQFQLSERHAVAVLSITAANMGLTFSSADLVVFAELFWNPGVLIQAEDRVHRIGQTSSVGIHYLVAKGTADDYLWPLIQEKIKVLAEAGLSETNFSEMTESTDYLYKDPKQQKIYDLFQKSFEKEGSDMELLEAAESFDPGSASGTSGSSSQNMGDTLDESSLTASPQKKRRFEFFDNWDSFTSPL
The assay is described as follows: condition: 2 μl (50 nM) protein solution into 18 μl buffer; mass photometry; 2 μl (50 nM) protein solution added into 18 μl protein elution buffer; movie recorded for 1 min; Refeyn 2MP mass photometer, NativeMark size marker; both purified. Particulars: remark: other sources report otherwise.

The target in assay [4] is MBP-RAD51 (human) (UniProt Q06609). In words: pull-down; ZRANB3 F→A variants and RAD51 (Supplementary Figure S4); the methods tell two set-ups (MBP-RAD51 on amylose resin with purified FLAG-ZRANB3; FLAG-ZRANB3 variants from Sf9 soluble extract on anti-FLAG resin with purified RAD51) and the text does not tell which was used for which variant; 100 mM NaCl, 1 h at 4°C; both purified.

No constants are given. Whether binding was seen depends on the method and setting. Some binding calls cover weakened binding; strength is not graded here. For some of these results: Tags and fused reporters may be left off the sequences shown.

B1: SMARCAL1-F446A (enzyme, UniProt Q9NZC9 1-954)
chain: MSLPLTEEQRKKIEENRQKALARRAEKLLAEQHQRTSSGTSIAGNPFQAKQGPSQNFPRESCKPVSHGVIFKQQNLSSSSNADQRPHDSHSFQAKGIWKKPEEMPTACPGHSPRSQMALTGISPPLAQSPPEVPKQQLLSYELGQGHAQASPEIRFTPFANPTHKPLAKPKSSQETPAHSSGQPPRDAKLEAKTAKASPSGQNISYIHSSSESVTPRTEGRLQQKSGSSVQKGVNSQKGKCVRNGDRFQVLIGYNAELIAVFKTLPSKNYDPDTKTWNFSMNDYSALMKAAQSLPTVNLQPLEWAYGSSESPSTSSEGQAGLPSAPSLSFVKGRCMLISRAYFEADISYSQDLIALFKQMDSRRYDVKTRKWSFLLEEHSKLIAKVRCLPQVQLDPLPTTLTLAFASQLKKTSLSLTPDVPEADLSEVDPKLVSNLMPFQRAGVNAAIAKGGRLLLADDMGLGKTIQAICIAAFYRKEWPLLVVVPSSVRFTWEQAFLRWLPSLSPDCINVVVTGKDRLTAGLINIVSFDLLSKLEKQLKTPFKVVIIDESHFLKNSRTARCRAAMPVLKVAKRVILLSGTPAMSRPAELYTQIIAVKPTFFPQFHAFGLRYCDAKRMPWGWDYSGSSNLGELKLLLEEAVMLRRLKSDVLSQLPAKQRKIVVIAPGRINARTRAALDAAAKEMTTKDKTKQQQKDALILFFNRTAEAKIPSVIEYILDLLESGREKFLVFAHHKVVLDAITQELERKHVQHIRIDGSTSSAEREDLCQQFQLSERHAVAVLSITAANMGLTFSSADLVVFAELFWNPGVLIQAEDRVHRIGQTSSVGIHYLVAKGTADDYLWPLIQEKIKVLAEAGLSETNFSEMTESTDYLYKDPKQQKIYDLFQKSFEKEGSDMELLEAAESFDPGSASGTSGSSSQNMGDTLDESSLTASPQKKRRFEFFDNWDSFTSPL
B1: the binding entry in the assay with MBP-RAD51 (human) [1] is given as “no binding (tested: 1 μg)”; in assay [2] it was “binds”.

B2: FLAG-SMARCAL1, Q9NZC9 1-954 (enzyme)
chain: MSLPLTEEQRKKIEENRQKALARRAEKLLAEQHQRTSSGTSIAGNPFQAKQGPSQNFPRESCKPVSHGVIFKQQNLSSSSNADQRPHDSHSFQAKGIWKKPEEMPTACPGHSPRSQMALTGISPPLAQSPPEVPKQQLLSYELGQGHAQASPEIRFTPFANPTHKPLAKPKSSQETPAHSSGQPPRDAKLEAKTAKASPSGQNISYIHSSSESVTPRTEGRLQQKSGSSVQKGVNSQKGKCVRNGDRFQVLIGYNAELIAVFKTLPSKNYDPDTKTWNFSMNDYSALMKAAQSLPTVNLQPLEWAYGSSESPSTSSEGQAGLPSAPSLSFVKGRCMLISRAYFEADISYSQDLIALFKQMDSRRYDVKTRKWSFLLEEHSKLIAKVRCLPQVQLDPLPTTLTLAFASQLKKTSLSLTPDVPEADLSEVDPKLVSNLMPFQRAGVNFAIAKGGRLLLADDMGLGKTIQAICIAAFYRKEWPLLVVVPSSVRFTWEQAFLRWLPSLSPDCINVVVTGKDRLTAGLINIVSFDLLSKLEKQLKTPFKVVIIDESHFLKNSRTARCRAAMPVLKVAKRVILLSGTPAMSRPAELYTQIIAVKPTFFPQFHAFGLRYCDAKRMPWGWDYSGSSNLGELKLLLEEAVMLRRLKSDVLSQLPAKQRKIVVIAPGRINARTRAALDAAAKEMTTKDKTKQQQKDALILFFNRTAEAKIPSVIEYILDLLESGREKFLVFAHHKVVLDAITQELERKHVQHIRIDGSTSSAEREDLCQQFQLSERHAVAVLSITAANMGLTFSSADLVVFAELFWNPGVLIQAEDRVHRIGQTSSVGIHYLVAKGTADDYLWPLIQEKIKVLAEAGLSETNFSEMTESTDYLYKDPKQQKIYDLFQKSFEKEGSDMELLEAAESFDPGSASGTSGSSSQNMGDTLDESSLTASPQKKRRFEFFDNWDSFTSPL
Take B2: the binding entry in assay [3] was “no binding”.

B3: ZRANB3 F736A (enzyme, UniProt Q5FWF4 1-1079)
chain: MPRVHNIKKSLTPHISCVTNESDNLLDFLPDRLRAKLLPFQKDGIIFALKRNGRCMVADEMGLGKTIQAIGITYFYKEEWPLLIVVPSSLRYPWTEEIEKWIPELSPEEINVIQNKTDVRRMSTSKVTVLGYGLLTADAKTLIDALNNQNFKVVIVDESHYMKSRNATRSRILLPIVQKARRAILLTGTPALGRPEELFMQIEALFPQKFGRWTDYAKRYCNAHIRYFGKRPQWDCRGASNLNELHQLLSDIMIRRLKTEVLTQLPPKVRQRIPFDLPSAAAKELNTSFEEWEKIMRTPNSGAMETVMGLITRMFKQTAIAKAGAVKDYIKMMLQNDSLKFLVFAHHLSMLQACTEAVIENKTRYIRIDGSVSSSERIHLVNQFQKDPDTRVAILSIQAAGQGLTFTAASHVVFAELYWDPGHIKQAEDRAHRIGQCSSVNIHYLIANGTLDTLMWGMLNRKAQVTGSTLNGRKEKIQAEEGDKEKWDFLQFAEAWTPNDSSEELRKEALFTHFEKEKQHDIRSFFVPQPKKRQLMTSCDESKRFREENTVVSSDPTKTAARDIIDYESDVEPETKRLKLAASEDHCSPSEETPSQSKQIRTPLVESVQEAKAQLTTPAFPVEGWQCSLCTYINNSELPYCEMCETPQGSAVMQIDSLNHIQDKNEKDDSQKDTSKKVQTISDCEKQALAQSEPGQLADSKEETPKIEKEDGLTSQPGNEQWKSSDTLPVYDTLMACASRNTDRIHIYTKDGKQMSCNFIPLDIKLDLWEDLPASFQLKQYRSLILRFVREWSSLTAMKQRIIRKSGQLFCSPILALEEITKQQTKQNCTKRYITKEDVAVASMDKVKNVGGHVRLITKESRPRDPFTKKLLEDGACVPFLNPYTVQADLTVKPSTSKGYLQAVDNEGNPLCLRCQQPTCQTKQACKANSWDSRFCSLKCQEEFWIRSNNSYLRAKVFETEHGVCQLCNVNAQELFLRLRDAPKSQRKNLLYATWTSKLPLEQLNEMIRNPGEGHFWQVDHIKPVYGGGGQCSLDNLQTLCTVCHKERTARQAKERSQVRRQSLASKHGSDITRFLVKK
Turning to B3, the binding entry in the assay with MBP-RAD51 (human) [4] is “no binding”.

Values taken from article PMC9371921, “Strand annealing and motor driven activities of SMARCAL1 and ZRANB3 are stimulated by RAD51 and the paralog complex” (Nucleic Acids Research, 2022).
